The campaign covered roughly 310,000 compounds. About 14,000 (4.5%) showed an effect of 50% or more. The effect is printed as a negative number. Some of the results follow.
target: human ether-à-go-go-related gene (hERG) potassium channel (human, UniProt Q12809); test: primary screen, population patch clamp on CHO cells stably expressing hERG
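Note: peak tail current of the secondary pulse compared with the same well before compound.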

Sequence of human ether-à-go-go-related gene (hERG) potassium channel (Q12809 whole entry, looked up): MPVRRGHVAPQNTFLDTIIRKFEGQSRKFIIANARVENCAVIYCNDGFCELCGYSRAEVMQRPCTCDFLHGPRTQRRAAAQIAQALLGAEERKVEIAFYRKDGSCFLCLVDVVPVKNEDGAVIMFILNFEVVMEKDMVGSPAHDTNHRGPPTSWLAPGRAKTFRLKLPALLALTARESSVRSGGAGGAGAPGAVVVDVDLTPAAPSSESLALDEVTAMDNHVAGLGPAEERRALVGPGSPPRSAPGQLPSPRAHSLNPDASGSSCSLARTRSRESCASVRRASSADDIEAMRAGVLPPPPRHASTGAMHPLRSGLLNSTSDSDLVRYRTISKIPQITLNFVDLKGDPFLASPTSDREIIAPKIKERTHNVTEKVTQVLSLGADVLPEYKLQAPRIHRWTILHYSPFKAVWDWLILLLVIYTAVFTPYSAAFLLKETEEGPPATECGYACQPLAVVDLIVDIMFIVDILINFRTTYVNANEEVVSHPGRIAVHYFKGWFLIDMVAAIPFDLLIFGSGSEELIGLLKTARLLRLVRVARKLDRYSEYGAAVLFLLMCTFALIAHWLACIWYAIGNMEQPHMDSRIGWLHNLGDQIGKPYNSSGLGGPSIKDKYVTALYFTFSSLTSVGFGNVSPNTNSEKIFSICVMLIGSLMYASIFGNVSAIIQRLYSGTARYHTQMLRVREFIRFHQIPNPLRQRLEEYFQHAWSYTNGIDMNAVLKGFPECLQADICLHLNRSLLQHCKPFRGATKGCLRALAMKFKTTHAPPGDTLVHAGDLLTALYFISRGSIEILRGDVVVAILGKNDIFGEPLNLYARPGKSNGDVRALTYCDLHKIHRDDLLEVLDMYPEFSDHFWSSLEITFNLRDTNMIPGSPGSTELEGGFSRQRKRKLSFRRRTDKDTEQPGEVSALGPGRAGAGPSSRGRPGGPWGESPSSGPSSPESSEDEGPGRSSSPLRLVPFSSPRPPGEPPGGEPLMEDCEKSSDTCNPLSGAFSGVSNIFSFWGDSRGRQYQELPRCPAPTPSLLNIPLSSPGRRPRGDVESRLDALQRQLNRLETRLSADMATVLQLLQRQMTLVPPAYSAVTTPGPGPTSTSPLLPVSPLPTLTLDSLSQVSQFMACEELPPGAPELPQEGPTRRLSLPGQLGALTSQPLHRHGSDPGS

Compared with `Cn1c(=O)c(=O)n(C)c2cc([N+](=O)[O-])c(N3CCOCC3)cc21`, `Nc1nc(Nc2ccccc2F)nc(N2CCOCC2)c1[N+](=O)[O-]` is higher in “hERG current change (%, negative = inhibition) at 10uM” value: -5.96% for the first, 4.6% for the second.

First: CC1CCN(c2nc(-c3ccccc3)cc(C(F)(F)F)n2)CC1
Second: Oc1ccc(-c2n[nH]c(C(F)(F)F)c2-c2ccccc2)c(O)c1
The “hERG current change (%, negative = inhibition) at 10uM” value of the first is lower: -0.231% for the first, 14.7% for the second.

Going from `Cc1cccc(S(=O)(=O)C(C#N)c2nc3ccccc3nc2N2CCCC2)c1` (stereo not drawn) to `Cc1ccc(S(=O)(=O)N2CCN(CC(O)c3ccccc3)CC2)cc1C` (stereo not drawn), the “hERG current change (%, negative = inhibition) at 10uM” value rises from -18.4% to 34.4%.

Compared with `Cc1cc(C)c2c(n1)SCC(=O)N2CC(=O)Nc1cc(F)ccc1F`, `Cc1ccc(C)c(NC(=O)CSc2nc(C)cc(C)c2C#N)c1` is higher in “hERG current change (%, negative = inhibition) at 10uM” value: -7.16% for the first, 9.7% for the second.

Compared with `CC(=O)Nc1ccc(S(=O)(=O)NCC2CCC(C(=O)NC(C)c3ccccc3)CC2)cc1` (stereo not drawn), `CCCCNC(=O)NS(=O)(=O)c1ccc(NS(=O)(=O)c2ccccc2)cc1` is lower in “hERG current change (%, negative = inhibition) at 10uM” value: 17.8% for the first, 7.98% for the second.

Going from `COC1=CC(=O)CC(C)C12Oc1cc(OC)cc(OC)c1C2=O` (stereo not drawn) to `COc1ccc(OC)c(N2C(=O)CC(C(C)c3ccccc3)C2=O)c1` (stereo not drawn), the “hERG current change (%, negative = inhibition) at 10uM” value rises from 3.5% to 7.28%.

Compared with `CCOC(=O)N1N=C(c2ccc(OC)cc2)CC1(O)C(F)(F)F` (stereo not drawn), `Cc1ccc(O)c(C2=NOC(O)(C(F)(F)F)C2)c1` (stereo not drawn) is lower in “hERG current change (%, negative = inhibition) at 10uM” value: 12.7% for the first, -6.25% for the second.

Compared with `O=C(O)CCCC(=O)N1CCc2cc(S(=O)(=O)NCc3ccc(F)cc3)ccc21`, `Cc1cccc(N2CCN(C(=O)CCNS(=O)(=O)c3ccc4c(c3)CCC(=O)N4)CC2)c1C` is lower in “hERG current change (%, negative = inhibition) at 10uM” value: 32.8% for the first, -44.6% for the second.

Going from `O=C(CSc1nc2ccccc2o1)N1c2ccccc2Sc2ccc(Cl)cc21` to `Clc1cncc(Cl)c1NNc1c2ccccc2nc2ccccc12`, the “hERG current change (%, negative = inhibition) at 10uM” value falls from -4.23% to -4.88%.

First: C/C(=N\NC(=O)C1CC1)c1ccc(Cl)cc1
Second: C/C(CS(=O)(=O)c1ccc(Cl)cc1)=N/NC(N)=S
The “hERG current change (%, negative = inhibition) at 10uM” value of the first is higher: 8.35% for the first, -14.2% for the second.

Going from `Cc1cc(N2CCN(C(=O)c3ccco3)CC2)n2nc(-c3cccc(Cl)c3)cc2n1` to `NC(=O)c1ccc(NC(=O)CN2CCN(C(=O)c3ccco3)CC2)cc1`, the “hERG current change (%, negative = inhibition) at 10uM” value falls from -1.09% to -3.09%.

First: O=C(c1nc2ccccn2c1CN1CCCC(OCc2ccccc2)C1)N1CCCC1 (stereo not drawn)
Second: O=C(N/C(=C/c1ccccc1F)C(=O)N1CCCCC1)c1ccccc1
The “hERG current change (%, negative = inhibition) at 10uM” value of the first is lower: -44.8% for the first, 10.1% for the second.

Going from `CC(=O)Nc1nc(C2COc3ccccc3O2)cs1` (stereo not drawn) to `Cc1csc(NC(=O)CSc2nc3ccccc3s2)n1`, the “hERG current change (%, negative = inhibition) at 10uM” value falls from 9.03% to -17.6%.

Compared with `Cc1ccc(S(=O)(=O)/C(C#N)=C/c2c(Oc3ccc(Cl)cc3)nc3c(C)cccn3c2=O)cc1`, `COc1ccc2[nH]cc(/C=C(/C#N)S(=O)(=O)c3ccccc3)c2c1` is lower in “hERG current change (%, negative = inhibition) at 10uM” value: 19.3% for the first, 13.5% for the second.

First: Cc1ccc(C(=O)NCc2ccc(N3CCN(C(=O)OC(C)(C)C)CC3)cc2)cc1
Second: Cc1cc2c(=O)n(CC(=O)N3CCN(c4ccc(F)cc4)CC3)cnc2s1
The “hERG current change (%, negative = inhibition) at 10uM” value of the first is higher: 10.1% for the first, -12.4% for the second.

First: CCC(=O)N(C1=C(NC)C(=O)c2ccccc2C1=O)C(C)C
Second: CCc1cccc(C)c1NC(=O)CN(C)S(=O)(=O)c1ccc(-c2ccc(=O)[nH]n2)s1
The “hERG current change (%, negative = inhibition) at 10uM” value of the first is higher: -0.0223% for the first, -55.3% for the second.

Compared with `N#CC(Cc1ccccc1OC(F)F)c1nc2ccccc2[nH]1` (stereo not drawn), `COc1cccc(-c2nc(NCc3ccco3)c3ccccc3n2)c1O` is higher in “hERG current change (%, negative = inhibition) at 10uM” value: -16.2% for the first, 1.44% for the second.

Compared with `CSc1nc2[nH]ncc2c(=O)[nH]1`, `CCCCSc1c(C)c2cc3c(cc2[nH]c1=O)OCO3` is higher in “hERG current change (%, negative = inhibition) at 10uM” value: 7.53% for the first, 8.22% for the second.

Compared with `O=C(CSc1nnc(-c2ccncc2)o1)N1CCc2ccccc2C1`, `Cc1ccc(-c2nn(Cc3ccccc3)cc2C(=O)O)cc1` is higher in “hERG current change (%, negative = inhibition) at 10uM” value: -37.4% for the first, 21.7% for the second.

First: COc1ccc(CCCc2n[nH]c(=S)o2)cc1C
Second: CCOC(=O)c1c(C)[nH]c(C(=O)OCC(=O)Nc2ccc(OC)c(Cl)c2)c1C
The “hERG current change (%, negative = inhibition) at 10uM” value of the first is lower: 15.8% for the first, 17.6% for the second.

Going from `COc1cccc(/C=N\NC(=O)c2cc(OCC(F)(F)F)ccc2OCC(F)(F)F)c1` to `COc1ccc(Cn2c(O)c(/C=N/NC(=O)c3ccccc3O)c(=O)[nH]c2=O)cc1`, the “hERG current change (%, negative = inhibition) at 10uM” value falls from 6.6% to 5.9%.

First: O=P(CCNCc1ccco1)(c1ccccc1)c1ccccc1
Second: CCC(=O)Nc1ccccc1C(=O)C(=O)Nc1ccccc1
The “hERG current change (%, negative = inhibition) at 10uM” value of the first is lower: -23.3% for the first, 9.67% for the second.

Going from `CCOC(=O)CCc1c(C)nc2cc(-c3ccc(F)cc3)[nH]n2c1=O` to `Cc1ccc2c(=O)c(C(=O)c3ccc(F)cc3)cn(CC(=O)NCc3ccco3)c2n1`, the “hERG current change (%, negative = inhibition) at 10uM” value falls from -2.68% to -5.4%.

First: O=C(CN1C(=O)NC2(CCCC2)C1=O)NNC(=O)c1ccc(F)cc1
Second: COc1ccc(NC(=O)C(=O)NCCC2CCCCN2S(=O)(=O)c2ccc(F)cc2)cc1 (stereo not drawn)
The “hERG current change (%, negative = inhibition) at 10uM” value of the first is higher: 28.9% for the first, -31.4% for the second.

First: Cc1ccc(C(=O)Nc2ccccc2C(N)=O)o1
Second: Cc1nc(NC(=O)/C=C/c2ccccc2)sc1C(=O)Nc1ccccc1Cl
The “hERG current change (%, negative = inhibition) at 10uM” value of the first is lower: -4.38% for the first, 13.3% for the second.

First: CC1CCN(CCCn2c(SCC(=O)NC3CCCC3)nc3ccccc3c2=O)CC1
Second: c1ccc(CN2CCC(Nc3nc(-c4cccs4)nc4ccccc34)CC2)cc1
The “hERG current change (%, negative = inhibition) at 10uM” value of the first is lower: -77% for the first, -59.9% for the second.

Compared with `Cc1nn(C)c(Cl)c1CN1CCN(CC(C)C)C(CCO)C1` (stereo not drawn), `COc1ccc(C(=O)C2CCCN(Cc3c(F)ccc(F)c3F)C2)c(OC)c1` (stereo not drawn) is lower in “hERG current change (%, negative = inhibition) at 10uM” value: 0.825% for the first, -30.9% for the second.

First: CC(Cc1ccccc1)[n+]1cc(/N=C(\[O-])N(C)C)on1.Cl (stereo not drawn)
Second: Cc1nccn1CC(O)COc1ccccc1 (stereo not drawn)
The “hERG current change (%, negative = inhibition) at 10uM” value of the first is lower: -4.3% for the first, -0.412% for the second.

Compared with `Clc1ccc(Cl)c2sc(N3CCOCC3)nc12`, `COc1ccc(NCC(=O)Nc2cc(S(=O)(=O)N3CCOCC3)ccc2N2CCOCC2)c(OC)c1` is lower in “hERG current change (%, negative = inhibition) at 10uM” value: 2.8% for the first, -7.17% for the second.

Going from `CCC(C)Nc1nc(SC(C(C)=O)C(C)=O)nc(N(C)C)n1` (stereo not drawn) to `CCn1c(SCC(=O)Nc2ccc(OC)cc2)nc2nc3c(cc2c1=O)COC(C)(C)C3`, the “hERG current change (%, negative = inhibition) at 10uM” value falls from -18.1% to -72.6%.

Compared with `CC(NCC(=O)NC(=O)NC1CCCC1)c1ccc(Cl)cc1Cl` (stereo not drawn), `O=C1OCc2cc(NC(=O)C3CCCCC3)ccc21` is higher in “hERG current change (%, negative = inhibition) at 10uM” value: -25.1% for the first, 13.3% for the second.

Going from `CC(=O)Nc1ccc2nc(NC(=O)c3cccs3)sc2c1` to `CCOC(=O)c1cccc(NC(=O)CS(=O)(=O)Cc2nc(-c3cccc(OC)c3)oc2C)c1`, the “hERG current change (%, negative = inhibition) at 10uM” value falls from 24.6% to -28%.

Compared with `Cc1ccnc(Sc2ccc([N+](=O)[O-])cc2[N+](=O)[O-])n1`, `O=c1c2c([N+](=O)[O-])cc([N+](=O)[O-])cc2sn1Cc1ccccc1` is higher in “hERG current change (%, negative = inhibition) at 10uM” value: 3.78% for the first, 23.3% for the second.

Going from `COc1cccc(CNC(=O)CCNC(=O)Cn2ccc3ccccc3c2=O)c1` to `COC(=O)C1=C(c2cccc(OCc3ccccc3)c2)C[C@@H]2CC[C@H]1N2C(=O)NCc1ccc(OC)cc1`, the “hERG current change (%, negative = inhibition) at 10uM” value falls from 10% to 9.68%.

Compared with `CCOCCCNCC(=O)NCC1CCCCC1.O=C(O)C(=O)O`, `CCOC(=O)CN1CC23C=CC(O2)C(C(=O)NC2CCCCCC2)C3C1=O` (stereo not drawn) is lower in “hERG current change (%, negative = inhibition) at 10uM” value: 31.6% for the first, -10.3% for the second.

Compared with `COc1ccc(C(CC(=O)N2CCC3(CC2)OCCO3)NS(=O)(=O)c2ccc(C)cc2)cc1` (stereo not drawn), `COc1ccc(CN(C)C(=O)CCc2ccc(S(=O)(=O)N3CCCCCC3)cc2)c(OC)c1` is lower in “hERG current change (%, negative = inhibition) at 10uM” value: -8.66% for the first, -29.8% for the second.

Compared with `N#Cc1c2c(c(Nc3ccc(O)cc3)n3c1nc1ccccc13)CCC2`, `COc1cc(C2C(C#N)=C(N)N(Nc3ccccc3)C3=C2C(=O)CC(C)(C)C3)ccc1OCc1cccc(F)c1` (stereo not drawn) is higher in “hERG current change (%, negative = inhibition) at 10uM” value: 5.51% for the first, 18.6% for the second.

Going from `COC(=O)COc1ccc2oc(=O)cc(-c3cc4ccccc4o3)c2c1` to `CCOc1ccc2nc(N(CCN(C)C)C(=O)c3cc4ccccc4cc3OC)sc2c1.Cl`, the “hERG current change (%, negative = inhibition) at 10uM” value falls from 10.9% to 1.72%.

First: CC12CN(C(=O)c3cccc([N+](=O)[O-])c3)C3(C#N)CC1CCC23C (stereo not drawn)
Second: O=C(c1cccc(OC(F)F)c1)N1CCN(c2ncccn2)CC1
The “hERG current change (%, negative = inhibition) at 10uM” value of the first is higher: 5.65% for the first, -12.5% for the second.

Compared with `CCN(CC(=O)Nc1ccc2c(c1)OCCO2)S(=O)(=O)c1ccccc1`, `CCC1(C)Cc2c(sc3nnn(CC(=O)Nc4ccc(Cl)cc4)c(=O)c23)CO1` (stereo not drawn) is lower in “hERG current change (%, negative = inhibition) at 10uM” value: 16.1% for the first, 13.5% for the second.

Compared with `Cc1ccc2oc(C(=O)NCC3CCOCC3)c(C)c2c1`, `Cc1ccc(S(=O)(=O)N2CCOCC2)cc1C(=O)NC(=S)N1CC(C)OC(C)C1` (stereo not drawn) is higher in “hERG current change (%, negative = inhibition) at 10uM” value: 8.07% for the first, 9.57% for the second.

Compared with `COc1cccc(N=Nc2c(N)[nH]n3c(=O)cc(-c4ccccc4)nc23)c1`, `Cn1c(SC/C=C/c2ccccc2)nnc1-c1ccco1` is lower in “hERG current change (%, negative = inhibition) at 10uM” value: -3.64% for the first, -27.1% for the second.

Compared with `O=C(Nc1ccc(NC(=O)C23CC4CC(CC(C4)C2)C3)cc1)c1cc(F)c(F)cc1Cl`, `Cc1ccc(C(=O)O/N=C(\N)c2nonc2N)cc1` is lower in “hERG current change (%, negative = inhibition) at 10uM” value: 8.93% for the first, -8.67% for the second.

`COc1ccc2[nH]c(O)c(N=O)c2c1` was tested, and the “hERG current change (%, negative = inhibition) at 10uM” value was 3.93%.
